Here are results for 29 molecules from the antibiotic and cytotoxicity screens of Wong et al. (2023).

The list shows a part of the results.

Test [1] concerns HSkMC (human skeletal muscle cells). Kind of test: cytotoxicity call (relative viability < 0.9). The note with it: 10 µM.
Test [2] deals with HepG2. Kind of test: cytotoxicity call (relative viability < 0.9). The note with it: 10 µM.
Test [3] concerns S. aureus RN4220. Kind of test: growth inhibition call (relative growth <= 0.2). The note with it: 50 µM.

For the molecule `C[C@@H]1CN([C@@H](C)CO)C(=O)Cc2cc(NC(=O)c3ccncc3)ccc2O[C@@H]1CN(C)S(=O)(=O)c1ccccc1`, the cytotoxicity call in test [1] is “inactive”. In addition, in test [2], the cytotoxicity call was “active”. Further, the growth inhibition call in test [3] was “inactive”.

As to `CC(/C=C/C(=O)NO)=C\c1ccccc1OCc1cn(-c2cccc(N(S(=O)(=O)c3ccc(C)cc3)S(=O)(=O)c3ccc(C)cc3)c2)nn1`, the cytotoxicity call in test [1] and in test [2] was “active” each time. In test [3], the growth inhibition call is “inactive”.

Turning to `C[C@H](CO)N1C[C@H](C)[C@@H](CN(C)S(=O)(=O)c2cccs2)Oc2ccc(NC(=O)CCCN(C)C)cc2C1=O`, the cytotoxicity call in test [1] and in test [2] was “inactive” throughout. For the same molecule, the growth inhibition call in test [3] was “inactive”.

On to `COCC#Cc1cnc2c(c1)C(=O)N([C@@H](C)CO)C[C@@H](C)[C@H](CN(C)C(=O)c1cnccn1)O2`, for which the cytotoxicity call in test [1] and in test [2] was “inactive” throughout. The growth inhibition call in test [3] is “inactive”.

With `Cc1ccccc1N1CCN(S(=O)(=O)C[C@@]23CC[C@@H](C[C@@H]2NC(=O)[C@@H](N)CCS(C)(=O)=O)C3(C)C)CC1`, the cytotoxicity call in test [1] and in test [2] was “inactive” in each case. Besides, in test [3], the growth inhibition call is “inactive”.

Take `Nc1nc(N)c2nc(-c3ccccc3)c(N)nc2n1`: the cytotoxicity call in test [1] and in test [2] was “inactive” each time. Moreover, the growth inhibition call in test [3] was “inactive”.

Turning to `N[C@H]1CCCC[C@@H]1OCc1ccccc1`, the cytotoxicity call in test [1] and in test [2] was “inactive” throughout. Further, the growth inhibition call in test [3] is “inactive”.

Turning to `CC(C)NC(=O)Nc1ccc2c(c1)CC(=O)N([C@@H](C)CO)C[C@H](C)[C@@H](CN(C)Cc1ccc(-c3ccccc3)cc1)O2`, the cytotoxicity call in test [1] is “inactive”. In addition, the cytotoxicity call in test [2] was “active”. Further, in test [3], the growth inhibition call was “inactive”.

As for `CC(C)NC(=O)N(C)C[C@H]1Oc2ccc(NC(=O)C3CCCCC3)cc2C(=O)N([C@@H](C)CO)C[C@@H]1C`, the cytotoxicity call in test [1] and in test [2] was “inactive” in each case. Also, in test [3], the growth inhibition call is “inactive”.

For the molecule `O=C(C[C@H]1C=C[C@H](NS(=O)(=O)c2ccccc2F)[C@@H](CO)O1)NCCCN1CCOCC1`, the cytotoxicity call in test [1] and in test [2] was “inactive” throughout. Also, in test [3], the growth inhibition call was “inactive”.

As for `C[C@H]1CN([C@@H](C)CO)C(=O)c2cc(NC(=O)Nc3cccc4ccccc34)ccc2O[C@@H]1CN(C)S(=O)(=O)c1ccccc1`, the cytotoxicity call in test [1] and in test [2] was “inactive” throughout. The growth inhibition call in test [3] was “inactive”.

With `COc1ccc(NC(=O)Nc2ccc3c(c2)C(=O)N([C@H](C)CO)C[C@H](C)[C@H](CN(C)Cc2ccc4c(c2)OCO4)OCCCC[C@H](C)O3)cc1`, the cytotoxicity call in test [1] was “inactive”. Also, the cytotoxicity call in test [2] is “active”. For the same molecule, the growth inhibition call in test [3] is “inactive”.

Turning to `COCC#Cc1ccc2c(c1)O[C@H](CN(C)C(=O)C1CCCCC1)[C@H](C)CN([C@@H](C)CO)S2(=O)=O`, the cytotoxicity call in test [1] and in test [2] was “inactive” each time. For the same molecule, the growth inhibition call in test [3] is “inactive”.

As for `O=C(N[C@H](c1ccc(F)cc1)c1ccc2ccccc2n1)C1CCN(Cc2ccc(Oc3ccccc3)cc2)CC1`, in test [1], the cytotoxicity call is “inactive”. Also, in test [2], the cytotoxicity call was “active”. Also, the growth inhibition call in test [3] is “inactive”.

In the case of `C[C@@H]1CN([C@@H](C)CO)C(=O)c2cc(NS(=O)(=O)c3cn(C)cn3)ccc2O[C@H]1CN(C)Cc1ccc(C(=O)O)cc1`, the cytotoxicity call in test [1] and in test [2] was “inactive” throughout. For the same molecule, the growth inhibition call in test [3] is “inactive”.

In the case of `N=C(N)Nc1nc(=O)c2ccccc2[nH]1`, the cytotoxicity call in test [1] and in test [2] was “inactive” each time. The growth inhibition call in test [3] is “inactive”.

Take `NC(=O)c1ccc[n+]([C@@H]2O[C@H](COP(=O)(O)OP(=O)(O)OC[C@H]3O[C@@H](n4cnc5c(N)ncnc54)[C@H](O)[C@@H]3O)[C@@H](O)[C@H]2O)c1`: the cytotoxicity call in test [1] and in test [2] was “inactive” throughout. Besides, the growth inhibition call in test [3] was “inactive”.

Turning to `CCCn1cnnc1[C@@H](C)N`, the cytotoxicity call in test [1] and in test [2] was “inactive” in each case. For the same molecule, the growth inhibition call in test [3] was “inactive”.

As for `C[C@@H]1CCCCO[C@H](CN(C)S(=O)(=O)c2ccc(F)cc2)[C@H](C)CN([C@@H](C)CO)C(=O)c2cc(NS(=O)(=O)c3ccc(Cl)cc3)ccc2O1`, the cytotoxicity call in test [1] is “inactive”. Further, the cytotoxicity call in test [2] was “active”. Besides, the growth inhibition call in test [3] is “inactive”.

For `Cc1noc(C)c1S(=O)(=O)Nc1ccc2c(c1)C(=O)N([C@@H](C)CO)C[C@@H](C)[C@H](CN(C)S(=O)(=O)c1cn(C)cn1)OCCCC[C@@H](C)O2`, the cytotoxicity call in test [1] and in test [2] was “inactive” in each case. Further, in test [3], the growth inhibition call was “inactive”.

Consider `C[C@H]1CCCCO[C@H](CN(C)CC2CCCCC2)[C@@H](C)CN([C@@H](C)CO)C(=O)c2cc(NC(=O)C3CCCCC3)ccc2O1`, for which the cytotoxicity call in test [1] was “inactive”. The cytotoxicity call in test [2] is “active”. Further, the growth inhibition call in test [3] was “inactive”.

For `CSCC[C@H](NC(=O)[C@@H](N)Cc1c[nH]c2ccccc12)C(=O)N[C@@H](CC(=O)O)C(=O)N[C@@H](Cc1ccccc1)C(N)=O`, the cytotoxicity call in test [1] and in test [2] was “inactive” each time. For the same molecule, the growth inhibition call in test [3] was “inactive”.

With `Nc1cccn2ncnc12`, the cytotoxicity call in test [1] and in test [2] was “inactive” throughout. For the same molecule, the growth inhibition call in test [3] is “inactive”.

For the molecule `COc1cc2c3cc1Oc1cc(ccc1O)C[C@@H]1c4c(cc(OC)c(O)c4Oc4ccc(cc4)C[C@@H]3N(C)CC2)CC[N+]1(C)C`, the cytotoxicity call in test [1] and in test [2] was “inactive” throughout. Besides, in test [3], the growth inhibition call is “inactive”.

Regarding `CC(C)(C)c1n[nH]c(C(C)(C)C)c1Cc1c(F)cccc1Cl`, the cytotoxicity call in test [1] and in test [2] was “inactive” throughout. Also, in test [3], the growth inhibition call was “inactive”.

As to `C[C@H]1CN([C@@H](C)CO)C(=O)Cc2cc(NS(C)(=O)=O)ccc2O[C@H]1CN(C)Cc1ccc(C(=O)O)cc1`, the cytotoxicity call in test [1] and in test [2] was “inactive” each time. Further, the growth inhibition call in test [3] was “inactive”.

`C[C@@H]1CN([C@H](C)CO)C(=O)c2cc(NS(=O)(=O)c3ccc(F)cc3)ccc2O[C@H]1CN(C)C(=O)Nc1ccc(C(F)(F)F)cc1`: the cytotoxicity call in test [1] and in test [2] was “inactive” each time. The growth inhibition call in test [3] was “inactive”.

For the molecule `O=C(CCCCC(=O)Nc1c(I)cc(I)c(C(=O)O)c1I)Nc1c(I)cc(I)c(C(=O)O)c1I`, the cytotoxicity call in test [1] and in test [2] was “inactive” in each case. The growth inhibition call in test [3] was “inactive”.

Regarding `Cc1ccc(S(=O)(=O)N(C)C[C@H]2OCCCC[C@H](C)Oc3ccc(NC(=O)Nc4cccc5ccccc45)cc3C(=O)N([C@@H](C)CO)C[C@H]2C)cc1`, the cytotoxicity call in test [1] and in test [2] was “inactive” throughout. Also, the growth inhibition call in test [3] is “inactive”.
